Measurements reported in PubChem BioAssay AID485281 (National Center for Advancing Translational Sciences (NCATS), 2010).
Screen size: about 350,000 compounds; about 260 (0.074%) were called active. The shares of active, inactive and inconclusive entries below differ from those in the screen. Calls follow the shape of the dose curve; as a rule, active = well fitted inhibition curve with a large enough effect; inconclusive = small, poorly fitted or top-dose-only effect; inactive = no such curve, though single readings can be large or run the other way. Where the call is inconclusive, the potency comes from a doubtful curve fit.

Target: Ferritin light chain (Equus caballus) (UniProt P02791)
Chain of UniProt P02791 (P02791 whole entry, looked up): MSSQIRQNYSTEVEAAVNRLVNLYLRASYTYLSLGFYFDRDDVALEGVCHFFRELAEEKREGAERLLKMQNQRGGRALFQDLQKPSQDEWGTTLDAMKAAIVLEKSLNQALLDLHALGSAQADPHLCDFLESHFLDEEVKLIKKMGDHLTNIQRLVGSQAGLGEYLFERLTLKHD
Test: qHTS Assay for Identification of Novel General Anesthetics; also: nearly all actives have a fitted effect of over 20% in size
Conditions: apoferritin/1-aminoanthracene competitive binding, fluorescence; series mostly up to 77.5 µM
In short: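 Steps: apoferritin (10 uM) was premixed with half-saturated 1-AMA in PBS, compounds were pin-transferred, plates stood 10 min at room temperature, fluorescence was read at 380/535 nm, and curves were fitted with a Hill equation.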
Tags tell the direction and shape of the fitted curve.

Potency, inconclusive:
CCOc1cccc(C(=O)Nc2nnc(-c3ccco3)s2)c1 35.5 µM [inhibitor, partial curve], O=C(Cn1nc(-c2ccc(Cl)cc2)ccc1=O)N1CCN(c2ccccc2)CC1 17.8 µM [inhibitor, partial curve], C[C@H](NC(=O)c1nc[nH]c1C(=O)N[C@@H](Cc1ccccc1)C(=O)OCc1ccccc1)C(=O)OC(C)(C)C 3.16 µM [inhibitor, partial curve], CC(C)(C)C(=O)Nc1nc(-c2ccc3c(c2)OCO3)cs1 25.1 µM [inhibitor, single point], Oc1ccc(N=Cc2ccc(OCc3ccccc3)cc2)cc1 15.8 µM [inhibitor, partial curve], O=C(CN1C(=O)CCSc2ccccc21)Nc1cccc(F)c1 28.2 µM [inhibitor, partial curve], CCOC(=O)c1c(NC(=O)CNCCO)sc(C)c1C 35.5 µM [inhibitor, single point], COc1ccc(CNC(=O)CCc2nc(-c3ccc(C)cc3)no2)c(OC)c1 35.5 µM [inhibitor, partial curve], COc1cc(CNCCN2CCOCC2)ccc1OCc1cccc(Cl)c1 17.8 µM [inhibitor, partial curve], CCn1nnnc1SCC(=O)c1ccc2c(c1)OCCO2 31.6 µM [inhibitor, partial curve], Cc1ccc(C(=O)COC(=O)c2ccco2)cc1C 31.6 µM [inhibitor, partial curve], CCc1cccc(Nc2ncnc3onc(-c4ccc(F)cc4)c23)c1 3.55 µM [inhibitor, full curve, poor fit], O=C(Nc1ccccc1O)c1csc2c1CCCC2 7.08 µM [inhibitor, full curve, poor fit], Cc1ccc(-c2ccc(/C=N/NC(=S)Nc3ccccc3)o2)cc1[N+](=O)[O-] 17.8 µM [inhibitor, partial curve], CCOc1ccccc1C(=O)NC1CC2CCCC(C1)N2Cc1nnnn1Cc1ccco1 (configuration not stated) 28.2 µM [inhibitor, partial curve], ClCc1csc(-c2ccccc2Cl)n1 35.5 µM [inhibitor, partial curve], CCN1C=CC(=C2C(=O)c3ccccc3C2=O)C=C1 28.2 µM [inhibitor, partial curve], Nc1ccccc1S(=O)(=O)NCCCCc1ccccc1 39.8 µM [inhibitor, single point], O=C(c1cccs1)N1CCCc2cc(NS(=O)(=O)c3ccc(F)cc3F)ccc21 28.2 µM [inhibitor, partial curve], Cc1ccc(S(=O)(=O)c2cn(Cc3ccccc3Cl)c3ccc(F)cc3c2=O)cc1 3.98 µM [inhibitor, full curve, poor fit], CCOC(=O)c1c(N)sc2c1CCCC2 28.2 µM [inhibitor, partial curve], O=C(CNC(=O)C1COc2ccccc2O1)N/N=C\c1ccccc1Cl (configuration not stated) 22.4 µM [inhibitor, partial curve], Cc1cc([N+](=O)[O-])ccc1NCc1cccc([N+](=O)[O-])c1 14.1 µM [inhibitor, partial curve], Cc1ccc(CSc2ncnc3ccccc23)cc1 39.8 µM [inhibitor, single point], Cc1ccc(C2C(C#N)=C(N)Oc3n[nH]c(-c4cccs4)c32)s1 (configuration not stated) 35.5 µM [inhibitor, partial curve], COc1ccccc1N1CCN(C(=O)c2cc(C(C)(C)C)oc2C)CC1 31.6 µM [inhibitor, partial curve], O=C(Nc1ccc(C2CC2(Cl)Cl)cc1)c1cccc([N+](=O)[O-])c1 (configuration not stated) 35.5 µM [inhibitor, partial curve], Cc1ccccc1CN1C(=O)c2ccccc2S1(=O)=O 31.6 µM [inhibitor, partial curve], COc1ccccc1C1CC(=O)Oc2cc3c(cc21)OCO3 (configuration not stated) 44.7 µM [inhibitor, partial curve]

Potency, inactive:
COc1ccc(Cl)cc1NC(=O)CSC1=Nc2ccccc2C2=NC(CC(=O)NCc3cccs3)C(=O)N12 (configuration not stated), O=C(c1cc(-c2ccc(O)cc2)on1)N1CCN(c2ccccc2)CC1, O=C(CSc1ccc(Cl)cc1)N1CCOCC1, COc1ccc(-n2nc([N+](=O)[O-])c(=NCCc3cccc(C)c3)n2O)cc1, Cc1ccc(Nc2nc3ccccc3nc2Nc2c(C)n(C)n(-c3ccccc3)c2=O)cc1, CCCCNC(=O)Nc1nnc(-c2ccc(OCC)cc2)o1, N#C/C(=C/c1ccc(N2CCOCC2)o1)c1ccc(Cl)cc1, Clc1cccc(-c2nn3c(Cn4cnc5ccccc54)nnc3s2)c1, Cc1ccc(C(c2sc3nc(-c4ccco4)nn3c2O)N2CCC3(CC2)OCCO3)cc1 (configuration not stated), Cc1ccc(S(=O)(=O)/N=C(\N)Nc2nc(C)c3ccc(C)cc3n2)cc1, CC(=O)NC1C(O)O[C@H](C(=O)O)[C@@H](O)[C@@H]1O (some centres not stated), COc1cc(Cl)cc2c1Sc1ccccc1/C2=C/CCN(C)C, O=S(=O)(c1ccc(N2CCCC2)cc1)C(F)(F)F, C=CCSc1nc2sc3c(c2c(=O)n1CC)CCc1ccccc1-3, Cc1ccccc1Nc1c(-c2cccs2)nc2cccc(C)n12, COc1ccccc1NC(=O)Cn1c(=O)n(CCCCCC(=O)NCc2ccccc2)c(=O)c2sccc21, CCOC(=O)c1c(C)oc2nc(C)nc(NCc3ccccc3OC)c12

Potency, active:
O=C(O)Cc1csc(Nc2cccc(Cl)c2)n1 10 µM
